# Data published in article PMC4336329 (PLoS ONE, 2015).
# Hit rate of the full screen: of about 310,000 compounds, about 14,000 (4.5%) showed an effect of 50% or more. Effects have a minus sign here. The list shows a part of the results.
# Target: human ether-à-go-go-related gene (hERG) potassium channel (human, UniProt Q12809)
# Experiment: primary screen, population patch clamp on CHO cells stably expressing hERG
# 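Further: peak tail current of the secondary pulse compared with the same well before compound.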
# Sequence of human ether-à-go-go-related gene (hERG) potassium channel (Q12809 whole entry, looked up): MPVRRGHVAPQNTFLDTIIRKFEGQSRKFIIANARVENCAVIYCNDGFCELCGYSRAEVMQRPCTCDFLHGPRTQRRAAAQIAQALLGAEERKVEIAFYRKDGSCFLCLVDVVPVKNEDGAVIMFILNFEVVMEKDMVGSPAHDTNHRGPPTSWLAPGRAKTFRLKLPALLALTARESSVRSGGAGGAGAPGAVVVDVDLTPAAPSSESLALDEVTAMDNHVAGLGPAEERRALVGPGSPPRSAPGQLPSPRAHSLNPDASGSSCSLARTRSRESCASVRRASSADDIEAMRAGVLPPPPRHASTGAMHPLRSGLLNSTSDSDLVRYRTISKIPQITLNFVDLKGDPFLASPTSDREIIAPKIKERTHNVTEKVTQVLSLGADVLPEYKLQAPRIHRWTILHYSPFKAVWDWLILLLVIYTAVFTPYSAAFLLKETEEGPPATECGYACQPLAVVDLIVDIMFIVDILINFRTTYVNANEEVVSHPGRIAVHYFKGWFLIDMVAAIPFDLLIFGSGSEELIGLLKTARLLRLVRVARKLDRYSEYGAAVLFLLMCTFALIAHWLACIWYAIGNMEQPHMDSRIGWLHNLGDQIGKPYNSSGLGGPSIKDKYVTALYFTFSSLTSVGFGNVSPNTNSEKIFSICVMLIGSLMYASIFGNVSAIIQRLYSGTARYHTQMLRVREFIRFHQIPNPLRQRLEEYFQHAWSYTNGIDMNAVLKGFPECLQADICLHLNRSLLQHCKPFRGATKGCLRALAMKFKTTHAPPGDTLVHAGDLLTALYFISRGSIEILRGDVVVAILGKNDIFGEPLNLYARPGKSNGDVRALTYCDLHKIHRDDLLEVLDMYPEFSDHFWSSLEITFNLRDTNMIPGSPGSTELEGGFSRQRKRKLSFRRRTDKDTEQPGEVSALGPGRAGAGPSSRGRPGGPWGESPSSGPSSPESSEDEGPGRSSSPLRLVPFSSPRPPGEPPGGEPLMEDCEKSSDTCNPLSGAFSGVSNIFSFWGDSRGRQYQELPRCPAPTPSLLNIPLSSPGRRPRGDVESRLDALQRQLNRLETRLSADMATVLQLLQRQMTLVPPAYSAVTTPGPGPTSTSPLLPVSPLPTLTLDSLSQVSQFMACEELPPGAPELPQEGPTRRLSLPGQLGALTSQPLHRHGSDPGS
row,Structure (SMILES),"hERG current change (%, negative = inhibition) at 10uM"
1,Cc1ccccc1CS(=O)(=O)Cc1ccc(C(=O)NC2CCCCC2)o1,-11.2%
2,COc1ccc(NC(=O)COc2ccc(-c3nn(C)c(=O)c4ccccc34)cc2)cc1,18.2%
3,Cc1ccc(OCC(=O)Nc2ccc(N3CCN(S(C)(=O)=O)CC3)cc2)cc1C,12.6%
4,O=C(CNC(=O)c1cc(S(=O)(=O)N2CCCCC2)ccc1N1CCOCC1)Nc1ccc(F)c(F)c1,23.7%
5,CCCC(O)(c1ccc(Br)cc1)C(CN1CCOCC1)c1ccc(Cl)cc1.Cl (centres unmarked),7.96%
6,CC(C)C(=O)Nc1cccc(C(=O)Nc2ccc(S(=O)(=O)N3CCOCC3)cc2)c1,-9.39%
7,CCC(C)c1ccc(NC(=S)N2CCCC2)cc1 (centres unmarked),1.86%
8,COc1ccc(CN2CCC(C(=O)Nc3ccc(Oc4cccnc4)cc3)CC2)cc1,-69.3%
9,O=C(CSc1nccn1-c1ccccc1)NO,7.96%
10,CC1CCN(C(=O)Cn2c(=O)n(Cc3ccco3)c(=O)c3sccc32)CC1,-7.77%
11,O=C(Cc1ccccc1)NCCC1=CCCCC1,9.32%
12,CCC(=O)c1ccc(OCC(=O)OC(C)C(=O)N2CCc3ccccc32)cc1 (centres unmarked),5.94%
13,NNC(=O)CNC(=O)C12CC3CC(CC(C3)C1)C2,17.3%
14,O=C(Cn1cnc2c(nnn2Cc2ccccc2F)c1=O)N1CCN(c2ccccc2)CC1,-31.2%
15,CC(C)c1onc(C(=O)N2CCOCC2)c1[N+](=O)[O-],7.71%
16,O=C(NC1CCCCC1)C(c1ccncc1)N(Cc1ccc2c(c1)OCO2)C(=O)C(F)(F)F (centres unmarked),-7.56%
17,O=S(=O)(NCc1ccccc1)c1ccc(Cl)cc1,0.117%
18,O.O=c1c2sc3nc(N4CCOCC4)c4c(c3c2nnn1Cc1ccccc1)CCCC4,1.88%
19,COc1cccc(NC(=O)Cn2c(=O)n(CCC(=O)NC3CCN(Cc4ccccc4)CC3)c(=O)c3ccccc32)c1,-57.6%

row,Structure (SMILES),"hERG current change (%, negative = inhibition) at 10uM"
1,NC(=O)CSc1nnc(Cc2cccs2)n1C1CCCCC1,7.21%
2,COc1ccc(C(NC(=O)c2ccc(F)cc2)c2ccccc2)cc1 (centres unmarked),-17.2%
3,Fc1cccc(Cl)c1Cn1nnc2c(N3CCC4(CC3)OCCO4)ncnc21,11.4%
4,O=C(CNC(=O)c1ccccc1F)NC1CC1,2.71%
5,Cc1oc(-c2ccccc2Cl)nc1CS(=O)(=O)CC(=O)NC1CCCC1,-6.93%
6,COc1ccc(S(=O)(=O)N2CCN(c3c(C)cccc3C)CC2)cc1OC,-13.6%
7,COc1ccc2c(c1)S(=O)(=O)c1ccccc1N2,-3.49%
8,Cc1ccc(S(=O)(=O)N2CCN(Cc3ccccc3C(F)(F)F)CC2)cc1,-5.53%
9,COc1ccc(NC(=O)N2CCC(CO)(CC3CCCCO3)CC2)c(OC)c1 (centres unmarked),22.1%
10,CCN(Cc1ccc2c(c1)OCO2)C(=O)/C=C/c1cccc(Br)c1,9.75%
11,Cc1cccc(C(=O)Nc2nc(C)c(C(=O)Nc3ccc4c(c3)CCC4)s2)c1,6.7%
12,Cc1cc(Oc2nnnn2-c2ccccc2)ccc1Cl,-15.3%
13,COc1ccc2c(c1)C(c1ccccc1)NC(=O)C2 (centres unmarked),4.01%
14,CCOC(=O)c1c(NC(=O)CC2Nc3cc(C)c(C)cc3NC2=O)sc(C)c1C (centres unmarked),3.52%
15,Cc1cc(NS(=O)(=O)c2ccc(Nc3nc(-c4ccc(O)cc4)cs3)cc2)no1,8.1%
16,O=C(O)c1cccc(COc2cccc3ccccc23)c1,8.71%
17,Cc1ccc(/C=C/C(=O)c2ccccc2O)cc1,29.5%
18,CCCCC1=CC2=CC(=O)C(C)(OC(=O)CC)C(=O)C2=CN1c1ccccc1 (centres unmarked),1.5%
19,c1ccc(-c2cc3c(nn2)CCc2nonc2-3)cc1,0.384%

row,Structure (SMILES),"hERG current change (%, negative = inhibition) at 10uM"
1,O=C(NC(=S)Nc1ccc2c(c1)C(=O)c1ccccc1C2=O)c1ccc(F)cc1,19.7%
2,O=C1CC(=O)N(c2cccc(C(F)(F)F)c2)C(=O)N1,25%
3,CCCOC(=O)NC1CCS(=O)(=O)C1 (centres unmarked),5.66%
4,Cc1c(C(=O)NCCc2ccccc2)oc2ccccc12,1.98%
5,CCc1nnc2n1N=C(c1ccc([N+](=O)[O-])cc1)CS2,-65.5%
6,c1ccc(-c2nc(N3CCOCC3)c3ccccc3n2)nc1,-15.9%
7,N#CCSc1nc2ccccc2c2nc3ccccc3n12,-0.29%
8,CC1CCc2cc(F)ccc2N1C(=O)c1ccc2c(c1)OCO2 (centres unmarked),-8.64%
9,C/C(=N/NS(=O)(=O)c1cccc([N+](=O)[O-])c1)c1ccc2c(c1)OCO2,6.48%
10,O=C(Nc1ccccc1)C1(c2ccccc2)CC1(Cl)Cl (centres unmarked),-18.1%
11,COc1ccc2c(c1OC)C(=O)OC2CC(=O)c1ccc(N(C)C)cc1 (centres unmarked),-1.02%
12,CCN(CCn1cccn1)C(=O)C1CCC(=O)N(CCN2CCOCC2)C1 (centres unmarked),6.14%
13,CC(C)C[C@@]12C(=O)N(c3cccc(Cl)c3)C(=O)N1[C@H](c1ccc(Br)cc1)[C@@H]1C(=O)N(C(C)(C)C)C(=O)[C@@H]12,22.7%
14,CC1(c2ccc(OC(F)F)cc2)NC(=O)N(CC(=O)Nc2ccc(F)cc2)C1=O (centres unmarked),-45.5%
15,Clc1ccccc1Nc1nc(-c2cccnc2)cs1,11.9%
16,O=C(CCN=C1NS(=O)(=O)c2ccccc21)OCC(=O)c1ccccc1Cl,-7.78%
17,N#Cc1ccccc1OCC(=O)OCC(=O)N1CCN(C(=O)c2ccco2)CC1,3.22%
18,O=C(COc1ccc2ccccc2c1)N1c2ccccc2Sc2ccccc21,-2.83%
